Laboratory results reported in paper PMC6524963, “Distinct RanBP1 nuclear export and cargo dissociation mechanisms between fungi and animals” (eLife, 2019).

Target: GST-yRanBP1 (S. cerevisiae, UniProt P41920)
Test: pull-down; GST-yRanBP1, GST-ΔC, GST-NESmut or their mutants on GSH beads; human or yeast CRM1 or mutants in the presence of RanGTP (hRanGTP in Figure 6A) (Figure 6A, D, E)
Conditions: both partners purified

B1: hCRM1^Q742T (natural protein)
chain: not shown
notes: CRM1, human, Q742T; source: E. coli, purified (Nickel beads, S200)
B1: binds.
